From PubChem BioAssay AID504706 (National Center for Advancing Translational Sciences (NCATS), 2011)
Among all 320,000 compounds or so, about 200 (0.062%) were called active. The shares of active, inactive and inconclusive entries below differ from those in the screen. Calls come from the whole dose curve; as a rule, active = well fitted activation curve with a large enough effect; inconclusive = small, poorly fitted or top-dose-only effect; inactive = no such curve, though single readings can be large or run the other way. Potencies of inconclusive entries are left out as doubtful fits.

Experiment: qHTS assay for re-activators of p53 using a Luc reporter; note: nearly all actives have a fitted effect of over 45% in size; for activity change, positive = activation: % of control where 0% means no effect
Details: H1299 p53-A138V BP100-luciferase reporter, luminescence, 24 h; series mostly up to 92.2 µM; activity change, positive = activation: at the top concentration
Summary of the method: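 p53-null H1299 cells stably carrying temperature-sensitive p53-A138V and a BP100-luciferase reporter were pinned with compounds (4-point, 1:5 series) and held 24 hrs at 37 deg C. Luminescence was read 10 min after detection reagent.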
Potency is the fitted concentration of half-maximal effect; tags give direction and shape of the fitted curve.

Question: With `CCOc1ccc(-c2nnc(SCC(=O)N3CCOCC3)o2)cc1` as the molecule, how does the Potency read?
Answer: inconclusive [activator, partial curve, poor fit]

Question: Which “activity change, positive = activation” value does the source give for `Cn1ccnc1SCc1cn2cc(Br)ccc2n1` here?
Answer: inactive: -3.92%

Question: With `CCn1nc(C(=O)NNC(=O)c2ccccc2)c2ccccc2c1=O` as the molecule, how does the “activity change, positive = activation” value read?
Answer: inactive: 19.7%

Question: With `CC(C)c1ccccc1NC(=O)CSc1n[nH]c(=O)n1C1CC1` as the molecule, how does the Potency read?
Answer: inconclusive [activator, single point]

Question: Which Potency does the source give for `CC(Sc1nc2cc(Cl)ccc2s1)C(=O)Nc1ccc2c(c1)OCO2` (stereo not drawn) here?
Answer: inconclusive [activator, full curve, poor fit]

Question: With `Cc1ccc2cc(CCNC(=O)c3ccco3)c(=O)[nH]c2c1C` as the molecule, how does the Potency read?
Answer: inconclusive [activator, full curve, poor fit]

Question: With `COc1cc([N+](=O)[O-])ccc1NC(=O)N1CCCCCC1` as the molecule, how does the “activity change, positive = activation” value read?
Answer: inactive: -26.2%

Question: For `O=[N+]([O-])c1cccc(C2=NC(c3ccccc3)CO2)c1` (stereo not drawn), which Potency is on record?
Answer: inconclusive [activator, partial curve, poor fit]

Question: Which Potency does the source give for `CC(C)(C)c1csc(NC(=O)c2ccc3nccnc3c2)n1` here?
Answer: inconclusive [activator, partial curve, poor fit]

Question: With `Cc1cc(C)n(-c2cc(C(C)(C)C)nc3c(-c4ccccc4)cnn23)n1` as the molecule, how does the Potency read?
Answer: inconclusive [activator, full curve, poor fit]

Question: For `N#CCC(=O)N/N=C/c1cc(Br)ccc1OCc1cccc2ccccc12`, which “activity change, positive = activation” value is on record?
Answer: inactive: 2.93%

Question: Which “activity change, positive = activation” value does the source give for `CN1C2CCC1CC(NC(=O)CSCc1ccc(Cl)cc1Cl)C2` (stereo not drawn) here?
Answer: inactive: 12.2%

Question: Which “activity change, positive = activation” value does the source give for `O=C(OCC(=O)c1c[nH]c2ccccc12)c1cc2ccccc2cc1O` here?
Answer: inactive: 9.52%

Question: For `Cc1ccc(CSc2ccc(-c3cccs3)nn2)cc1`, which Potency is on record?
Answer: inconclusive [activator, partial curve, poor fit]

Question: With `O=c1oc2ccccc2nc1/C=C(O)/C=C\c1ccccc1` as the molecule, how does the Potency read?
Answer: inconclusive [activator, partial curve, poor fit]

Question: Which Potency does the source give for `O=S(=O)(Nc1cccc(-c2ccc(N3CCCCCC3)nn2)c1)c1ccccc1F` here?
Answer: inconclusive [activator, partial curve, poor fit]

Question: With `COCCN1CCc2c(C)nc3c(-c4ccc(OC)c(OC)c4)cnn3c21` as the molecule, how does the Potency read?
Answer: inconclusive [activator, partial curve, poor fit]

Question: For `CCOC(=O)c1[nH]c2ccc(F)cc2c1NC(=O)c1ccccc1C(=O)O`, which Potency is on record?
Answer: inconclusive [activator, full curve, poor fit]

Question: With `O=C(COc1ccccc1)Nc1cccc(-c2ccc(N3CCOCC3)nn2)c1` as the molecule, how does the Potency read?
Answer: inconclusive [activator, partial curve, poor fit]

Question: For `CCCn1cnc2cc(NCc3ccccn3)ccc21`, which Potency is on record?
Answer: inconclusive [activator, full curve, poor fit]

Question: Which “activity change, positive = activation” value does the source give for `CC(C)Sc1nc2c(c(=O)[nH]c(=O)n2C)n1Cc1ccc(Cl)cc1` here?
Answer: inactive: -13.3%

Question: For `COc1ccc(/C(=N/Nc2ncnc3ccccc23)C(=O)O)cc1`, which Potency is on record?
Answer: inconclusive [activator, full curve, poor fit]

Question: Which “activity change, positive = activation” value does the source give for `C=CCNc1nnc(SC2CC(=O)N(c3ccc(OC)cc3)C2=O)s1` (stereo not drawn) here?
Answer: inactive: -13.5%

Question: Which Potency does the source give for `O=[N+]([O-])c1cccc(C2Nc3cccc4cccc(c34)N2)c1` here?
Answer: inconclusive [activator, single point]

Question: For `Nc1cc2sc(-c3ccc(C(=O)O)cc3)nc2cc1Cl`, which Potency is on record?
Answer: inconclusive [activator, full curve, poor fit]

Question: With `CCCCC(c1nnnn1Cc1ccco1)N1CCN(c2nc3ccccc3s2)CC1` (stereo not drawn) as the molecule, how does the “activity change, positive = activation” value read?
Answer: inactive: -3.29%

Question: For `COc1ccc(NC(=O)C2CCN(c3cc(C)nc(-c4ccccc4)n3)CC2)cc1`, which “activity change, positive = activation” value is on record?
Answer: inactive: -10.7%

Question: With `COC(=O)c1sc(S(=O)(=O)N2CCC(C(N)=O)CC2)c(C(=O)OC)c1C` as the molecule, how does the “activity change, positive = activation” value read?
Answer: inactive: -1.07%

Question: For `O=C(NCC(c1cccnc1)N1CCN(c2ccccc2)CC1)OCc1ccccc1` (stereo not drawn), which “activity change, positive = activation” value is on record?
Answer: inactive: 0.512%

Question: Which Potency does the source give for `O=C(COc1cccc2cccnc12)Nc1nccs1` here?
Answer: inconclusive [activator, partial curve, poor fit]

Question: With `Cc1ccc(C(=O)OCC(=O)NC2CC2)cc1S(=O)(=O)N1CCOCC1` as the molecule, how does the Potency read?
Answer: inconclusive [activator, partial curve, poor fit]

Question: With `CCOc1ccc(N=C(NN)c2ccc3ccccc3n2)cc1` as the molecule, how does the Potency read?
Answer: inconclusive [activator, full curve, poor fit]

Question: Which Potency does the source give for `C=C(C)c1cccc(C(C)(C)NC(=O)Nc2ccc(C)cn2)c1` here?
Answer: inconclusive [activator, full curve, poor fit]

Question: Which Potency does the source give for `C/C(=N\NC(=S)NCCc1ccccc1)c1cccs1` here?
Answer: inconclusive [activator, partial curve, poor fit]

Question: For `O=C(Oc1cc(=O)oc2ccccc12)c1ccco1`, which Potency is on record?
Answer: inconclusive [activator, partial curve, poor fit]

Question: For `COc1cccc(-c2cc(C(=O)NCc3ccco3)no2)c1`, which Potency is on record?
Answer: inconclusive [activator, partial curve, poor fit]

Question: For `O=C(CCN1CCN(Cc2ccccc2)CC1)Nc1cccc(Br)c1`, which “activity change, positive = activation” value is on record?
Answer: inactive: 0.793%

Question: For `COc1ccc(NC(=O)Cc2ccccc2)cc1`, which Potency is on record?
Answer: inconclusive [activator, partial curve, poor fit]

Question: Which Potency does the source give for `Cc1ccc2nc(SCC(=O)N3CCOCC3)[nH]c2c1` here?
Answer: inconclusive [activator, partial curve, poor fit]

Question: With `O=C(Nc1ccc(Cl)cc1)OCc1ccccn1` as the molecule, how does the Potency read?
Answer: inconclusive [activator, partial curve, poor fit]

Question: With `O=C(COC(=O)/C=C/c1ccccc1Cl)NC1CCCC1` as the molecule, how does the Potency read?
Answer: inconclusive [activator, single point]

Question: For `CN(C)CCCNc1ncnc2c1cnn2-c1ccccc1`, which Potency is on record?
Answer: inconclusive [activator, partial curve, poor fit]

Question: With `Cc1c(/C=C/C(=O)c2cccs2)cnn1C` as the molecule, how does the Potency read?
Answer: inconclusive [activator, partial curve, poor fit]

Question: For `COc1ccc(OCC(=O)N2CCN(C(=O)c3ccco3)CC2)cc1`, which Potency is on record?
Answer: inconclusive [activator, single point]

Question: For `COc1ccc(N=Cc2nc(-c3ccccc3)oc2OC(=O)c2ccccc2)cc1`, which Potency is on record?
Answer: inconclusive [activator, partial curve, poor fit]

Question: For `O=C(NCc1ccc(F)cc1)c1cccc(S(=O)(=O)N2CCCC2)c1`, which “activity change, positive = activation” value is on record?
Answer: inactive: -0.362%

Question: For `COc1cc(CNC2CCCCCCC2)c(Br)cc1OCCO`, which Potency is on record?
Answer: inconclusive [activator, partial curve, poor fit]

Question: With `O=C(Nc1ccc2c(c1)OCO2)c1cc(Cl)ccn1` as the molecule, how does the Potency read?
Answer: inconclusive [activator, full curve, poor fit]

Question: For `Cc1ccc(O)c(NC(=O)c2noc3c2CCCCC3)c1`, which Potency is on record?
Answer: inconclusive [activator, partial curve, poor fit]

Question: Which Potency does the source give for `CCOc1ccc(-n2nnnc2-c2nc3ccccc3s2)cc1` here?
Answer: inconclusive [activator, full curve, poor fit]

Question: With `COc1ccc2[nH]c(=O)c(CN(CCCN(C)C)C(=O)Nc3ccccc3)cc2c1` as the molecule, how does the Potency read?
Answer: inconclusive [activator, single point]

Question: With `Cc1ccc(C(=O)/C=C/Nc2ccccc2C(N)=O)cc1` as the molecule, how does the “activity change, positive = activation” value read?
Answer: inactive: 10.5%

Question: With `CC(=O)C1=C(O)C(=O)N(c2cccc(C(=O)O)c2)C1c1ccc(F)cc1` (stereo not drawn) as the molecule, how does the Potency read?
Answer: inconclusive [activator, partial curve, poor fit]

Question: For `CCCCCC(=O)NC(=S)Nc1cccc(C(C)=O)c1`, which Potency is on record?
Answer: inconclusive [activator, single point]

Question: Which “activity change, positive = activation” value does the source give for `CC1=C(C(=O)Nc2cccc(C(=O)NC(C)c3ccccc3)c2)SCCO1` (stereo not drawn) here?
Answer: inactive: 1.3%

Question: For `Cc1ccc2nc(NC(=O)C3CCN(S(=O)(=O)c4cccs4)CC3)sc2c1`, which Potency is on record?
Answer: inconclusive [activator, partial curve, poor fit]

Question: For `c1ccc2cc(OCc3nc4ccccc4[nH]3)ccc2c1`, which Potency is on record?
Answer: inconclusive [activator, partial curve, poor fit]

Question: Which Potency does the source give for `Cc1[nH]c2ccccc2c1C(=O)COC(=O)c1ccccc1O` here?
Answer: inconclusive [activator, partial curve, poor fit]

Question: Which Potency does the source give for `COc1ccc(OCC(O)CN2CCCC2)cc1` (stereo not drawn) here?
Answer: inconclusive [activator, single point]

Question: For `Cc1ccc(CSCCC(=O)NCCC2=CCCCC2)cc1`, which Potency is on record?
Answer: inconclusive [activator, single point]

Question: For `COc1cccc2c1nc(C)c1cc(C)oc12`, which Potency is on record?
Answer: inconclusive [activator, partial curve, poor fit]

Question: Which Potency does the source give for `Cc1ccccc1NC(=O)CSc1nc(N)c(C#N)c(-c2cccs2)c1C#N` here?
Answer: inconclusive [activator, partial curve, poor fit]

Question: With `O=C(/C=C/c1ccccc1Cl)Nc1ccncc1` as the molecule, how does the Potency read?
Answer: inconclusive [activator, partial curve, poor fit]

Question: With `COC(=O)c1cnc(SCC(=O)c2ccccc2)n1C` as the molecule, how does the “activity change, positive = activation” value read?
Answer: inactive: 10.5%

Question: For `CCOc1cc([N+](=O)[O-])cc(/C=N/NC(=O)c2c(-c3ccccc3)noc2C)c1O`, which “activity change, positive = activation” value is on record?
Answer: inactive: -5.15%

Question: Which Potency does the source give for `COC(=O)CCCC(=O)N1CCC(CO)(CCc2ccccc2)CC1` here?
Answer: inconclusive [activator, single point]

Question: Which Potency does the source give for `O=C(c1nc2ccccn2c1CN1CCCC(O)C1)N1CCN(C2CCCCC2)CC1` (stereo not drawn) here?
Answer: inconclusive [activator, single point]

Question: With `Cc1ccc(C(=O)O)cc1NC(=S)NC(=O)c1ccc([N+](=O)[O-])c(C)c1` as the molecule, how does the “activity change, positive = activation” value read?
Answer: inactive: 4.39%
